# Reference: PubChem BioAssay AID485294 (National Center for Advancing Translational Sciences (NCATS), 2010)
# The campaign covered roughly 370,000 compounds. About 150 (0.041%) were called active. The shares of active, inactive and inconclusive entries below differ from those in the screen. Calls follow the shape of the dose curve; as a rule, active = well fitted inhibition curve with a large enough effect; inconclusive = small, poorly fitted or top-dose-only effect; inactive = flat fitted curve, though single readings scatter. Potencies of inconclusive entries are left out as doubtful fits.
# Target: Beta-lactamase (Escherichia coli (strain K12)) (UniProt P00811)
# Experiment: qHTS Inhibitors of AmpC Beta-Lactamase (assay with detergent); also: nearly all actives have a fitted effect of over 25% in size
# Conditions: AmpC hydrolysis of nitrocefin, absorbance 480 nm, 0.01% Triton; series mostly up to 114 µM
# How it was run: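 AmpC (5.3 nM in the dispensed reagent) in 20 mM phosphate pH 7.0 with 0.01% (detergent screen) or 0.0001% Triton X-100 was preincubated with compounds for 15 min at room temperature. Nitrocefin was then added from an 800 uM solution, and hydrolysis was followed at 480 nm.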
# Potency is read from the fitted curve at half-maximal effect; tags tell the direction and shape of the fitted curve.
# Chain of UniProt P00811 (P00811 whole entry, looked up): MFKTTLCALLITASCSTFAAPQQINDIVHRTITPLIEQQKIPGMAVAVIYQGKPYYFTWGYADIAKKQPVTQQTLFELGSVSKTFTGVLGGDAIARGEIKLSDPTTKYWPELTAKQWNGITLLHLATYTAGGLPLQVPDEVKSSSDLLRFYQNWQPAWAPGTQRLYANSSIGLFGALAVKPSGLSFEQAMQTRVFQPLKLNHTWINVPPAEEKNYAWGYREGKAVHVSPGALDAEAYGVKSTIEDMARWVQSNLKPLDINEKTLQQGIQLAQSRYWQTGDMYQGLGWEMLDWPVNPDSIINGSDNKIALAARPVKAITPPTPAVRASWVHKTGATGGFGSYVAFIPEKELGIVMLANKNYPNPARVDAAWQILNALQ
row,Compound,Potency
1,COc1ccccc1N1CCN(C2CCCN(C(=O)c3ccoc3C)C2)CC1 (stereo unspecified),"inconclusive [inhibitor, partial curve, poor fit]"
2,NC(=O)CCn1c(C(=O)c2cc(Cl)c(N)c(Cl)c2)c2ccccc2[n+]1[O-],inactive
3,COC(=O)NC(Nc1sc2c(c1C(N)=O)CCCC2)(C(=O)OC)C(F)(F)F (stereo unspecified),"inconclusive [inhibitor, full curve, poor fit]"
4,CC1(C)NC(=O)N(CC(=O)Nc2cc(C(F)(F)F)cc(C(F)(F)F)c2)C1=O,"inconclusive [inhibitor, partial curve]"
5,CC(=O)Nc1ccc(Sc2ncccc2C(=O)Nc2cc(Cl)cc(Cl)c2)cn1,"inconclusive [inhibitor, single point]"
6,Cc1ccc(Cn2c(N3CCCCCC3)nc3c2c(=O)[nH]c(=O)n3C)cc1,"inconclusive [inhibitor, full curve, poor fit]"
7,CCOc1ccccc1NC(=O)CSC1=NN2CCCC(=O)N=C2S1,inactive
8,Cc1ccc(CC2CC(=O)N(c3ccc4c(c3)OCCO4)C2=O)cc1 (stereo unspecified),"inconclusive [inhibitor, partial curve, poor fit]"
9,CCn1c2ccccc2c2cc(NC(=O)c3ccccc3-c3ccccc3C(=O)O)ccc21,"inconclusive [inhibitor, full curve, poor fit]"
10,CN(C(=O)COC(=O)C(C)(C)Oc1ccc(Cl)cc1)c1c(N)n(Cc2ccccc2)c(=O)[nH]c1=O,"inconclusive [inhibitor, full curve, poor fit]"
11,FC(F)Oc1ccccc1C1CC(c2ccc(Br)s2)Nc2ncnn21 (stereo unspecified),"inconclusive [inhibitor, single point]"
12,COc1ccc([C@@H](C)NC(=O)c2ccc3oc(C(C)C)nc3c2)cc1,inactive
13,COCC(=O)Nc1cccc2ccccc12,"inconclusive [inhibitor, full curve, poor fit]"
14,CC12CC[C@H]3[C@@H](CCC4(O)C[C@H](O)CCC34/C=N/NC(=O)Cc3ccccc3)C1(O)CCC2C1=CC(=O)OC1 (stereo partly specified),inactive
15,Oc1[nH]c2ccc(Br)cc2c1N=NC(=S)N1CCOCC1,inactive
16,CCc1c(C2(O)CCCCC2)[nH]c2ccc(C(F)(F)F)cc12,"inconclusive [inhibitor, full curve, poor fit]"
17,COc1ccc(S(=O)(=O)NCc2csc(-c3cccnc3)n2)cc1,"inconclusive [inhibitor, full curve]"
18,COc1cccc(CN(C)C(=O)c2ccc(S(=O)(=O)N3CCCC3)cc2)c1OC,"inconclusive [inhibitor, partial curve, poor fit]"
19,COc1ccc(CC(=O)OCC(=O)NCCNC(=O)COC(=O)Cc2ccc(OC)cc2)cc1,"inconclusive [inhibitor, full curve, poor fit]"
20,Cc1ccc(S(=O)(=O)NNC(=O)c2cc3cc4ccccc4nc3s2)cc1,"inconclusive [inhibitor, full curve]"
21,O=C(Nc1ccc(-c2csc(Nc3ccccc3)n2)cc1)c1cccc(C(F)(F)F)c1,inactive
22,Cc1ccc(S(=O)(=O)Nc2cc3c4c(c2)CCN4C(=O)CC3)cc1,"inconclusive [inhibitor, full curve, poor fit]"

row,Compound,Potency
1,NC(=O)c1ccccc1N/C=C/C(=O)c1ccco1,"inconclusive [inhibitor, full curve]"
2,COc1ccc(S(=O)(=O)N2CCN(c3cccc(C)c3C)CC2)cc1,"inconclusive [inhibitor, full curve, poor fit]"
3,Cc1onc(-c2ccccc2)c1C(=O)Nc1nnc(-c2ccncc2)s1,"inconclusive [inhibitor, partial curve, poor fit]"
4,COc1ccc(C(C(=O)NC2CCCCC2)N(Cc2ccco2)C(=O)c2snc(C(N)=O)c2N)cc1 (stereo unspecified),"inconclusive [inhibitor, partial curve, poor fit]"
5,CCC(C)(C)C1CCC2(CC1)NC(=O)N(CC(=O)N1CCN(C(=O)c3ccco3)CC1)C2=O (stereo unspecified),inactive
6,Cc1ccc(C(=O)OCC(=O)N(CC(C)C)c2c(N)n(Cc3ccccc3)c(=O)[nH]c2=O)o1,"inconclusive [inhibitor, partial curve, poor fit]"
7,CCc1cccc(NC(=O)CCc2nc3sc4c(c3c(=O)[nH]2)CCCC4)c1,"inconclusive [inhibitor, partial curve, poor fit]"
8,O=C1COc2ccc(C(=O)COC(=O)C3CC(O)CN3S(=O)(=O)c3ccc(Cl)cc3)cc2N1 (stereo unspecified),"inconclusive [inhibitor, single point]"
9,COc1ccc(-c2noc(-c3ccc(Br)o3)n2)cc1OC,inactive
10,COc1cccc(NC(=O)CNC(=O)c2ccccc2)c1,"inconclusive [inhibitor, full curve]"
11,CN(Cc1ccccc1)c1nnc(N)s1,"inconclusive [inhibitor, partial curve, poor fit]"
12,CC1(C)OC(=O)C(=NNc2ccccc2)C(=O)O1,inactive
13,CCN(CC)CCN1C(=O)C(=O)/C(=C(/O)c2ccccc2)C1c1ccccc1F (stereo unspecified),"inconclusive [inhibitor, partial curve, poor fit]"
14,COC(=O)C1CCN(C(=O)C2CCN(C(=O)[C@H](C)NS(=O)(=O)c3ccc(C)cc3)CC2)CC1,"inconclusive [inhibitor, full curve, poor fit]"
15,Cc1ccc(CNC(=O)CS(=O)(=O)c2ccccc2)cc1,inactive
16,Cc1ccc(NC(=O)COC(=O)CCc2c(C)nc3nc(N)nn3c2C)cc1C,"inconclusive [inhibitor, full curve]"
17,Clc1ccc(OCc2nc(-c3ccccn3)no2)c(Br)c1,"inconclusive [inhibitor, partial curve, poor fit]"
18,O=C(CCSCc1ccccc1Cl)NCc1cccs1,"inconclusive [inhibitor, partial curve, poor fit]"
19,Nc1c(C(=O)NCc2ccco2)sc2nc3c(cc12)C(=O)CCC3,"inconclusive [inhibitor, full curve]"
20,CC(C)NC(=O)c1ccccc1NC(=O)Cc1ccc(Cl)cc1,"inconclusive [inhibitor, partial curve, poor fit]"
21,O=C(CN1CCC(NC(=O)c2ccccc2F)CC1)NCc1ccc(F)cc1,inactive
22,O=C1CCCC2(O)C1C(c1cccc(Br)c1)NC(=O)N2Cc1ccccc1 (stereo unspecified),"inconclusive [inhibitor, full curve, poor fit]"

row,Compound,Potency
1,O=C(c1ccc(Cl)cc1)n1cnc2ccccc21,"inconclusive [inhibitor, partial curve, poor fit]"
2,O=C(Nc1cccc(Cl)c1)Nc1nc(-c2ccc(Cl)cc2)cs1,inactive
3,Cc1ccc(S(=O)(=O)NNC(=O)C(=O)NNc2ccccn2)cc1,inactive
4,CC(C)(C)[C@H]1C=C(C(=O)NC2CC2)O[C@@H](OCCCCO)C1,inactive
5,C=CCn1c(Cc2csc(N)n2)nnc1SCC(=O)Nc1ccccc1C(F)(F)F,inactive
6,Cc1cc(C(=O)NNC(=O)Nc2cccc(C(F)(F)F)c2)no1,inactive
7,Cc1nnc(N/N=C/c2cc([N+](=O)[O-])c(N3CCC(C)CC3)cc2N2CCC(C)CC2)n1N,inactive
8,c1ccc2c(c1)CCN(C1=Nc3cccc4cccc1c34)C2,"inconclusive [inhibitor, partial curve]"
9,COC(=O)c1sc(N)c(C(=O)OC)c1COC(=O)[C@@H](NS(=O)(=O)c1cccc(Cl)c1)C(C)C,"inconclusive [inhibitor, full curve, poor fit]"
10,COc1cccc(NC(=O)Cn2nnc(C(=O)NCc3cccs3)c2N)c1,"inconclusive [inhibitor, full curve, poor fit]"
11,COc1ccc(CC2(CO)CCN(CC3=Cc4cc(Cl)ccc4OC3)CC2)cc1,"inconclusive [inhibitor, full curve, poor fit]"
12,Cc1ccc(C)c(CSc2nc(-c3ccccc3F)nc3c2Cc2c(CO)cnc(C)c2O3)c1,inactive
13,CCC1CC(/C(C)=N/NC(N)=O)OC1=O (stereo unspecified),"inconclusive [inhibitor, single point]"
14,O=C1CC(N2CC=C(c3ccccc3)CC2)C(=O)N1c1ccc(F)cc1 (stereo unspecified),"inconclusive [inhibitor, full curve, poor fit]"
15,Cn1c(=O)c2c(nc(NCc3cccnc3)n2Cc2cccc(C(F)(F)F)c2)n(C)c1=O,"inconclusive [inhibitor, full curve, poor fit]"
16,Cc1ccc(C(=O)Nc2ccc(NC(=O)c3cccs3)cc2)cc1[N+](=O)[O-],inactive
17,CC(C)=CCC/C(C)=C/CC/C(C)=N/O,inactive
18,N#CC1=C(N)OC2=C(C(=O)CCC2)C1c1ccccc1 (stereo unspecified),"inconclusive [inhibitor, partial curve, poor fit]"
19,CCC(CC)CN1C(N(C)C)=NC[C@@H]1CC(C)C,"inconclusive [inhibitor, full curve, poor fit]"
20,COc1cc(NC(=O)c2[nH]c(C)c(C(C)=O)c2C)cc(OC)c1OC,"inconclusive [inhibitor, partial curve]"
21,CN(Cc1ccccc1Cl)C(=O)CCNC(=O)c1ccco1,inactive
22,COc1ccc(S(=O)(=O)N(C)CC(=O)O)c2ccccc12,"inconclusive [inhibitor, full curve]"
